In patent publication US5914339A, “Substituted 1,3-benzodioxoles” (American Home Products Corporation, priority 1997, dated 1999):
The name of at least one read-out is uncertain.

Tested on: plasma free fatty acids
Test: Effects on plasma free fatty acid levels in rats
Type: in vivo, rat
Conditions: 0.1 mg/kg, gavage, blood collected 50 min later
Protocol: Rats respond to a single oral dose of β3 agonists by increasing plasma free fatty acids (FFA) in response to β3 receptor stimulation on the plasma membrane of the fat cell. 5-{2-[2-(3-Chloro-phenyl)-2-hydroxy-ethylamino]-propyl}-benzo[1,3]dioxole- 2,2-dicarboxylic acid diisopropyl ester (Standard 2) was used as a standard compound. All test compounds were dosed at 0.1 mg/kg and compared to the response by Standard 2.
1). Drugs were dissolved in DMSO at 10 mg/ml.
2). Twenty μl of the DMSO-drug solution was added to 10 mL methyl cellulose:tween-80 (0.5%:0.1%) for a final concentration of 20 μg/mL.
3). Methyl cellulose:tween-80 drug suspension was given via gavage (1 mL/200 g body weight; or 0.1 mg/kg) to rats and blood was collected 50 min later.
4). Plasma was analyzed for free fatty acids using a kit supplied by Biochemical Diagnostics Inc. (Brentwood, N.Y.).
5). Drug response was calculated from the formula below. [formula]
^b Elevation of plasma free fatty acids in rats, compounds tested at
0.1 mg/kg, results expressed as % of
5{2[2(3-Chloro-phenyl)-2-hydroxy-ethylaminopropylbenzo[1,3dioxole-2,2-dic
rboxylic acid diisopropyl ester response (78% increase) at 0.1 mg/kg.
ED50 (mg/kg) values determined for selected compounds.

SMILES | Rat Free Fatty Acid: elevation of plasma free fatty acids, % of diisopropyl ester (Standard 2) response [%]
CC(Cc1ccc2c(c1)OC(C(=O)OCCC1CCCC1)(C(=O)OCCC1CCCC1)O2)NCC(O)c1cccc(Cl)c1 (stereo not drawn) [Example 41, 5-{2-[2-(3-Chloro-phenyl)-2-hydroxy-ethylamino]-propyl}-benzo[1,3]dioxole-2,2-dicarboxylic acid bis-(2-cyclopentyl-ethyl) ester] | 36
C[C@H](Cc1ccc2c(c1)OC(C(=O)OCC1(C)CCCCC1)(C(=O)OCC1(C)CCCCC1)O2)NC[C@H](O)c1cccc(Cl)c1 [Example 82, 5-{(2R)-2-[(2R)-2-(3-Chloro-phenyl)-2-hydroxy-ethylamino]-propyl}-benzo[1,3]dioxole-2,2-dicarboxylic aicd bis-(1-methyl-cyclohexylmethyl) ester] | 84
CC(Cc1ccc2c(c1)OC(C(=O)O)(C(=O)OCCOC(C)(C)C)O2)NCC(O)c1cccc(Cl)c1 (stereo not drawn) [Example 7, 5-{2-[2-(3-Chloro-phenyl)-2-hydroxy-ethylamino]-propyl}-benzo[1,3]dioxole-2,2-dicarboxylic acid (2-tert-butoxy-ethyl) ester] | 22
CCOC(=O)C1(C(=O)O)Oc2ccc(CC(C)NCC(O)c3cccc(Cl)c3)cc2O1 (stereo not drawn) [Example 23, 5-{2-[2-(3-Chloro-phenyl)-2-hydroxy-ethylamino]-propyl}-benzo[1,3]dioxole-2,2-dicarboxylic acid ethyl ester] | 57
C[C@H](Cc1ccc2c(c1)OC(C(=O)OCC(C)(C)Cc1ccccc1)(C(=O)OCC(C)(C)Cc1ccccc1)O2)NC[C@H](O)c1cccc(Cl)c1 [Example 89, 5-{(2R)-2-[(2R)-2-(3-Chloro-phenyl)-2-hydroxy-ethylamino]-propyl}-benzo[1,3]dioxole-2,2-dicarboxylic aicd bis-(2,2-dimethyl-3-phenyl-propyl) ester] | 25
CCCCOCCOC(=O)C1(C(=O)OCCOCCCC)Oc2ccc(CC(C)NCC(O)c3cccc(Cl)c3)cc2O1.Cl (stereo not drawn) [Example 3, 5-{2-[2-(3-Chloro-phenyl)-2-hydroxy-ethylamino]-propyl}-benzo[1,3]dioxole-2,2-dicarboxylic acid bis-(2-butoxy-ethyl) ester hydrochloride salt] | 20
C[C@H](Cc1ccc2c(c1)OC(C(=O)OCC13CC4CC(CC(C4)C1)C3)(C(=O)OCC13CC4CC(CC(C4)C1)C3)O2)NC[C@H](O)c1cccc(Cl)c1 (stereo partly drawn) [Example 77, 5-{(2R)-2-[(2R)-2-(3-Chloro-phenyl)-2-hydroxy-ethylamino]-propyl}-benzo[1,3]dioxole-2,2-dicarboxylic acid bis-adamantan-1-ylmethyl ester] | 25
CC(Cc1ccc2c(c1)OC(C(N)=O)(C(N)=O)O2)NCC(O)c1cccc(Cl)c1 (stereo not drawn) [Example 60, 5-{2-[2-(3-Chloro-phenyl)-2-hydroxy-ethylamino]-propyl}benzo[1,3]dioxole-2,2-dicarboxylic acid bis-amide] | 22
CC(=O)OCOC(=O)C1(C(=O)OCOC(C)=O)Oc2ccc(CC(C)NCC(O)c3cccc(Cl)c3)cc2O1 (stereo not drawn) [Example 42, 5-{2-[2-(3-Chloro-phenyl)-2-hydroxyethylamino]propyl}benzo[1,3] dioxole-2,2-dicarboxylic acid bis-acetoxymethyl ester] | 39
C[C@H](Cc1ccc2c(c1)OC(C(=O)OCC1CCCCO1)(C(=O)OCC1CCCCO1)O2)NC[C@H](O)c1cccc(Cl)c1 (stereo partly drawn) [Example 90, 5-{(2R)-2-[(2R)-2-(3-Chloro-phenyl)-2-hydroxy-ethylamino]-propyl}-benzo[1,3]dioxole-2,2-dicarboxylic aicd bis-(tetrahydro-pyran-2-ylmethyl) ester] | 11
CC(Cc1ccc2c(c1)OC(C(=O)OC(C)OC(=O)c1ccccc1)(C(=O)OC(C)OC(=O)c1ccccc1)O2)NCC(O)c1cccc(Cl)c1 (stereo not drawn) [Example 57, 5-{2-[2-(3-Chloro-phenyl)-2-hydroxyethylamino]propyl}benzo[1,3] dioxole-2,2-dicarboxylic acid bis-(benzoyloxy-ethyl) ester] | 30
CCN(CC)C(=O)COC(=O)C1(C(=O)OCC(=O)N(CC)CC)Oc2ccc(C[C@@H](C)NC[C@H](O)c3cccc(Cl)c3)cc2O1 [Example 68, 5-{(2R)-2-[(2R)-2-(3-Chloro-phenyl)-2-hydroxy-ethylamino]-propyl}-benzo[1,3]dioxole-2,2-dicarboxylic acid bis-diethylcarbamoylmethyl ester] | 5
CC(C)CCC(=O)OCOC(=O)C1(C(=O)OCOC(=O)CCC(C)C)Oc2ccc(CC(C)NCC(O)c3cccc(Cl)c3)cc2O1 (stereo not drawn) [Example 47, 5-{2-[2-(3-Chloro-phenyl)-2-hydroxyethylamino]propyl}benzo[1,3] dioxole-2,2-dicarboxylic acid bis-(4-methyl-pentanoyloxymethyl) ester] | 37
Cc1cccc(CCOC(=O)C2(C(=O)OCCc3cccc(C)c3)Oc3ccc(C[C@@H](C)NC[C@H](O)c4cccc(Cl)c4)cc3O2)c1.Cl [Example 97, 5-{(2R)-2-[(2R)-2-(3-Chloro-phenyl)-2-hydroxy-ethylamino]-propyl}-benzo[1,3]dioxole-2,2-dicarboxylic acid bis-(2-m-tolyl-ethyl) ester hydrochloride salt] | 39
CC(Cc1ccc2c(c1)OC(C(=O)OCc1ccccc1)(C(=O)OCc1ccccc1)O2)NCC(O)c1cccc(Cl)c1.Cl (stereo not drawn) [Example 9, 5-{2-[2-(3-Chloro-phenyl)-2-hydroxy-ethylamino]-propyl}-benzo[1,3]dioxole-2,2-dicarboxylic acid bis-(benzyl) ester hydrochloride salt] | 22
C[C@H](Cc1ccc2c(c1)OC(C(=O)O)(C(=O)OCCC(C)(C)C)O2)NC[C@H](O)c1cccc(Cl)c1 (stereo partly drawn) [Example 81, 5-{(2R)-2-[(2R)-2-(3-Chloro-phenyl)-2-hydroxy-ethylamino]-propyl}-benzo[1,3]dioxole-2,2-dicarboxylic acid (3,3-dimethylbutyl) ester] | 61
C[C@H](Cc1ccc2c(c1)OC(C(=O)OCC1(C)CC=CCC1)(C(=O)OCC1(C)CC=CCC1)O2)NC[C@H](O)c1cccc(Cl)c1 (stereo partly drawn) [Example 93, 5-{(2R)-2-[(2R)-2-(3-Chloro-phenyl)-2-hydroxy-ethylamino]-propyl}-benzo[1,3]dioxole-2,2-dicarboxylic aicd bis-(1-methyl-cyclohex-3-enylmethyl) ester] | 75
CCCC(=O)OCOC(=O)C1(C(=O)OCOC(=O)CCC)Oc2ccc(CC(C)NCC(O)c3cccc(Cl)c3)cc2O1 (stereo not drawn) [Example 44, 5-{2-[2-(3-Chloro-phenyl)-2-hydroxyethylamino]propyl}benzo[1,3] dioxole-2,2-dicarboxylic acid bis-butyryloxymethyl ester] | 24
